In all, about 310,000 compounds went through this assay and about 2,200 (0.71%) showed an effect of 50% or more. Effects have a minus sign here. Some of the results follow.
Molecular target: human ether-à-go-go-related gene (hERG) potassium channel (human, UniProt Q12809)
Assay: primary screen, population patch clamp on CHO cells stably expressing hERG

human ether-à-go-go-related gene (hERG) potassium channel, sequence (Q12809 whole entry, looked up): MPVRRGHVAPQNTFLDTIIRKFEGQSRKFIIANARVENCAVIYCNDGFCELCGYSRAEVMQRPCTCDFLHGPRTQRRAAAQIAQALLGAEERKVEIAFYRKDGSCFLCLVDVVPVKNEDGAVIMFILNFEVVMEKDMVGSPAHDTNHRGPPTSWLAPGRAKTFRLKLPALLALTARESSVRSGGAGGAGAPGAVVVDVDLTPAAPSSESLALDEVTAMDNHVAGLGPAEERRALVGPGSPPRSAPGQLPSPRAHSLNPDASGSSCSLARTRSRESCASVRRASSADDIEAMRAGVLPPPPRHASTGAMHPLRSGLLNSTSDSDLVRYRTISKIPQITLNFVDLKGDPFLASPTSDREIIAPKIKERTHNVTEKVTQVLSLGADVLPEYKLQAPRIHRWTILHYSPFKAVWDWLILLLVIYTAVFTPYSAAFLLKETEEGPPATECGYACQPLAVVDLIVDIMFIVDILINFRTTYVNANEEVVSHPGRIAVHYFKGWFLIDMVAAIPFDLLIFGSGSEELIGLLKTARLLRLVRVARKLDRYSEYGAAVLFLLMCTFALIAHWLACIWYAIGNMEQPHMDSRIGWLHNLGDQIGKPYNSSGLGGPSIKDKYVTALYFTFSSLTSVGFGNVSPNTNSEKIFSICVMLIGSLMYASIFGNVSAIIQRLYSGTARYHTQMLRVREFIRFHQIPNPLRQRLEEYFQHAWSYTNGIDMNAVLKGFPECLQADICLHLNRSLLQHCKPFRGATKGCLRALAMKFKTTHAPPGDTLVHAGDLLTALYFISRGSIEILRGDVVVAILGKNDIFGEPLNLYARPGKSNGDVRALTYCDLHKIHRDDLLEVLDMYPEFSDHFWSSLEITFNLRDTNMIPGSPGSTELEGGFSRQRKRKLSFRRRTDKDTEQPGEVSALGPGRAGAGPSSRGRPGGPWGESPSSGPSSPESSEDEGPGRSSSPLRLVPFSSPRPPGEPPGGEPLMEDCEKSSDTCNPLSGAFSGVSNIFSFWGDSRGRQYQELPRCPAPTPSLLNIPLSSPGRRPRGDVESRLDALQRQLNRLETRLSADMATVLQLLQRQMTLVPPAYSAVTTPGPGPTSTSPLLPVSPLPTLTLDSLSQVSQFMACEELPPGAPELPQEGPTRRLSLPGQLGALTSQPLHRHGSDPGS

| SMILES | hERG current change (%, negative = inhibition) at 1uM [%] |
| --- | --- |
| Fc1ccc(Nc2ccc(-c3ccc(F)cc3)nn2)cc1 | 9.4 |
| Cc1cc(C)nc(Nc2ccc(F)cc2)n1 | 13 |
| CCOc1nc(Nc2ccccc2)nc(OCC)n1 | 4.42 |
| CC(C)C(NC(=O)CNC(=O)OC(C)(C)C)C(=O)NCc1ccc(Cl)cc1 (stereo not shown) | 7.98 |
| Cc1cccc(S(=O)(=O)Nc2cccc(-c3cn4ccsc4n3)c2)c1 | 3.91 |
| O=C(c1ccc(NS(=O)(=O)c2cccc3cccnc23)cc1)N1CCCCC1 | -1.88 |
| COc1ccc(-c2cn(-c3ccc(C)c(C)c3)c(=S)[nH]2)cc1OC | 6.32 |
| COc1cccc(-c2nc(C#N)c(N3CCN(C(=O)c4ccco4)CC3)o2)c1 | -2.03 |
| C/C(N)=C(/C#N)C(=O)COc1ccc(Cl)cc1Cl | 9.63 |
| CC1(C)Cc2cccc(OCC(=O)Nc3ccccc3C(F)(F)F)c2O1 | 7.33 |
| Cc1ccc(/C=N/NS(=O)(=O)c2ccc([N+](=O)[O-])cc2)o1 | 15.2 |
| CCc1ccc(NC(=O)CSC2=C(C#N)C(c3ccc4c(c3)OCO4)CC(=O)N2)cc1 (stereo not shown) | 10.5 |
| COc1ccc(NC(=O)c2ccc(NC3CC(=O)N(c4ccc(C)cc4C)C3=O)cc2)cc1 (stereo not shown) | -1.95 |
| CCOC(=O)N1CCN(CC(O)COCCC23CC4CC(CC(C4)C2)C3)CC1.Cl (stereo not shown) | -0.536 |
| CCSC1(SCC)N=C(N)C2(C#N)C(c3ccc(F)cc3)C12C#N (stereo not shown) | 4.83 |
| O=S(=O)(NCCSCc1c(Cl)cccc1Cl)c1ccc2c(c1)OCCO2 | 6.62 |
| O=C(NCC(=O)N(Cc1ccco1)C(C(=O)NC1CCCCC1)c1cccnc1)c1ccco1 (stereo not shown) | 14.3 |
| CCCCNC(=O)CCn1c(=O)c2ccccc2n(CC(=O)Nc2ccccc2OCC)c1=O | 3.69 |
| CCOc1ccccc1CN1CCN(C2CCC2)CC1CCO (stereo not shown) | 20 |
| O=C(NCc1ccccc1)c1cccc(S(=O)(=O)N2CCCCC2)c1 | -13.7 |
| Cc1ccc(S(=O)(=O)N2CCc3ccccc3C2CN2C(=O)c3ccccc3C2=O)cc1 (stereo not shown) | 4.87 |
| CC1(C)OC(C)(C)/C(=C/Nc2ccc(O)cc2)C1=O | 7.79 |

| SMILES | hERG current change (%, negative = inhibition) at 1uM [%] |
| --- | --- |
| Cl.OCCCCNCc1ccc(OCc2ccc(Cl)cc2)cc1 | 1.84 |
| CC(=O)CSc1nc2c(c(=O)[nH]c(=O)n2C)n1CCCc1ccccc1 | 2.13 |
| COc1ccc(C2(C#N)CCC(=O)N2c2ccccc2)cc1 (stereo not shown) | 8.4 |
| CN(C)C(=O)c1ccc(NC(=O)c2cccnc2)cc1 | 7.3 |
| O=C(CCS(=O)(=O)Cc1ccccc1F)N1CCc2ccccc2C1 | 4.35 |
| O=C1Nc2ccc(S(=O)(=O)NCCCO)c3cccc1c23 | 15.3 |
| CSCCC(NS(=O)(=O)c1ccc(F)cc1)C(=O)NCc1ccc(S(N)(=O)=O)cc1 (stereo not shown) | 7.02 |
| C=C(C)c1cccc(C(C)(C)NC(=O)NC2CC(C)(C)NC(C)(C)C2)c1 | 7.67 |
| COC(=O)c1[nH]c2ccc(Cl)cc2c1NC(=O)CCN1CCOCC1 | 9.37 |
| COc1ccc(-n2nc(C(=O)Nc3ccc4c(c3)OCO4)c3ccccc3c2=O)cc1 | 13.3 |
| COc1ccc(S(=O)(=O)O/N=C2\CCCc3ccccc32)cc1 | 3.33 |
| N#CCC(=O)N/N=C\c1cc(Br)ccc1OC/C=C/c1ccccc1 | 14.8 |
| Cc1cccc(-n2c(O)c(C=Nc3ccccc3)c3ccccc3c2=O)n1 | 8.02 |
| CC(C)CCN(C(=O)c1ccc(Br)cc1)c1c(N)n(Cc2ccccc2)c(=O)[nH]c1=O | 0.0038 |
| CCN(CC1CCCO1)C(=O)c1cc(COc2ccc(OC)cc2Cl)on1 (stereo not shown) | 5.36 |
| CC1(c2ccc(Cl)cc2Cl)NC(=O)N(CC(=O)N2CCN(C(=O)c3ccco3)CC2)C1=O (stereo not shown) | 2.7 |
| O=C(O)CC(C(=O)O)N1C(=O)/C(=C/c2ccc(-c3nc4ccccc4s3)o2)SC1=S (stereo not shown) | 0.538 |
| Cc1ccc(NC(=O)Nc2ccc3c(c2)OCO3)c(Br)c1 | 19.1 |
| CC(NC(=O)CN(c1cccc(C(F)(F)F)c1)S(=O)(=O)c1ccc(Cl)c([N+](=O)[O-])c1)c1ccccc1 (stereo not shown) | 14.4 |
| COc1ccccc1-c1cc(-c2cc(Cl)ccc2O)n[nH]1 | 15.1 |
| C/C(=N\NC(=O)c1ccccn1)C12CC3CC(CC(C3)C1)C2 | 11.8 |
| CCN(c1ccc(NC(=O)CCc2nc3sc4c(c3c(=O)[nH]2)CCCC4)cc1)C(C)C | 11.9 |

| SMILES | hERG current change (%, negative = inhibition) at 1uM [%] |
| --- | --- |
| Cc1ccc2c(c1)NC(c1cccs1)C1=C(CC(C)(C)CC1=O)N2 (stereo not shown) | 11.5 |
| CN(CCC#N)c1ccc(/C=C(\C#N)c2ccccn2)cc1 | 9.85 |
| CNC(=O)CCn1nc(-c2ccccc2)c2ccccc2c1=O | 16.9 |
| Cc1ccc(N(CC(=O)Nc2cccc(Cl)c2C)S(C)(=O)=O)cc1 | 12.5 |
| COc1ccc(NC(=O)/C=C/c2ccccc2[N+](=O)[O-])c(OC)c1 | 14.1 |
| O=C(OCC(=O)N1CCOCC1)c1ccc(N2CCOCC2)c([N+](=O)[O-])c1 | 12.2 |
| CCC(C)N1CC(C(=O)O)CC1=O (stereo not shown) | 10 |
| NC(=O)COc1ccc(C23CC4CC(CC(C4)C2)C3)cc1 | 12 |
| O=Cc1cnc(N2CCCCC2)s1 | 18.8 |
| COc1ccc(C(=O)Nc2ccc(S(=O)(=O)NC(C)=O)cc2)cc1 | 12.5 |
| Cc1cccc(NS(=O)(=O)c2ccc3oc(=O)ccc3c2)c1C | 20.8 |
| CC(C)COc1ccc(C(=O)N2C(=O)c3ccc(N)cc3C2=O)cc1 | 9.3 |
| CC(NC(=O)CN(C)S(=O)(=O)c1cnc[nH]1)c1ccccc1 (stereo not shown) | 6.38 |
| CC(C)c1csc(CN2CCC(n3nccc3NC(=O)Cc3ccccc3)CC2)n1 | 2.39 |
| COCCNC(=O)CCn1nc(-c2ccc(Cl)cc2)c2ccccc2c1=O | 0.283 |
| CN1C(=O)C(Cc2ccc3c(c2)OCO3)C(=O)N(C)C1=O | -0.0301 |
| CCOC(=O)C1CCCN(C(=S)Nc2cc(C)cc(C)c2)C1 (stereo not shown) | -6.32 |
| COc1ccc(C(=O)Nc2ccc3c(c2)OCCO3)cc1 | 13.7 |
| O=C(c1ccc(CSc2nc3ccncc3[nH]2)cc1)N1CCN(c2cccc(Cl)c2)CC1 | 6.24 |
| Cc1ccc2occ(/C=N/NC(=O)c3ccc(Cl)cc3)c(=O)c2c1 | 13.9 |
| CN1CCN(S(=O)(=O)c2cccc(C(=O)NC3CCCc4ccccc43)c2)CC1 (stereo not shown) | 7.42 |
| CC12CCC(C/C1=N/NC(=O)COc1ccccc1Cl)C2(C)C (stereo not shown) | 5.22 |

| SMILES | hERG current change (%, negative = inhibition) at 1uM [%] |
| --- | --- |
| Cc1cccc(C)c1NC(=O)CSc1nc2c([nH]1)c(=O)n(C)c(=O)n2C | 11.6 |
| Cc1ccc(C#CC[N+]2(CC#Cc3ccc(C)cc3)CCCCC2)cc1.[Br-] | -51.8 |
| Cc1c(Br)c(=O)oc2c(Br)c(O)c(O)cc12 | 5.18 |
| Cc1ccccc1-c1nc(CN2CCC(C(=O)NC3CCCCC3)CC2)c(C)o1 | -17.2 |
| COc1ccc2nc(-c3ccc(F)cc3)sc2c1 | 4.97 |
| CCOc1ccc(N=Cc2c(O)n(C(C)(C)C)c(=O)[nH]c2=O)cc1 | 15 |
| O=C(CCCCn1c(=O)c2ccccc2n(CC(=O)Nc2cccc(F)c2)c1=O)NCc1ccco1 | 10.9 |
| Cc1cc2c(cc1S(=O)(=O)CCC(=O)N(C)Cc1ccccc1)OCC(=O)N2 | -16.3 |
| Cc1c2c(nc3nnnn13)CCCC2 | 2.62 |
| O=C(CC1NCCNC1=O)OCc1ccccc1 (stereo not shown) | 7.51 |
| O=C(NC1CCCCC1)C(c1ccccc1)N(Cc1ccc2c(c1)OCO2)C(=O)c1cnsn1 (stereo not shown) | 3.57 |
| CCOc1ccccc1N1CC(C(=O)NNC(=O)c2ccc(F)cc2)CC1=O (stereo not shown) | 9.21 |
| O=C(Nc1cccnc1)c1cccc(S(=O)(=O)Nc2cccc(Cl)c2)c1 | 5.23 |
| CCOC(=O)C1C(=O)NC23CCCC2C1c1ccccc1O3 (stereo not shown) | 8.76 |
| O=C(NC(=S)NCc1ccccc1)C1CCCCC1 | -1.16 |
| Cc1ccccc1C(=O)N1CCCC(CCC(=O)N2CCN(c3ccccn3)CC2)C1 (stereo not shown) | 13.6 |
| COc1ccc(S(=O)(=O)N2CCN(CC(=O)Nc3cccc(F)c3)CC2)cc1 | -8.66 |
| N#Cc1c(=O)c2nc(NCc3ccccc3)ncc2n2ccccc12 | -8.04 |
| Brc1ccccc1/C=N/N1CCCCC1 | 11.5 |
| COc1ccc(NC2=NCC(Cc3ccc(Br)cc3)S2)cc1 (stereo not shown) | 7.69 |
| CCC1=C2CC[C@H]3C(=O)N(C)C(=O)[C@H]3[C@H]2[C@@]2(Cc3ccccc3)C(=NCC(=O)OC)OC(=O)N2C1=O | 0.771 |
| CCN(CC)CCNC(=O)c1ccc(Cl)c(S(=O)(=O)Nc2ccccc2OC)c1 | 5.7 |

From paper PMC4336329 (PLoS ONE, 2015)
